Laboratory results taken from PubChem BioAssay AID485281 (National Center for Advancing Translational Sciences (NCATS), 2010).
Screen size: about 350,000 compounds; about 260 (0.074%) were called active. Inconclusive means that the source gave no clear call. Such entries were picked first, then a sample of the others. Calls come from the whole dose curve; as a rule, active = well fitted inhibition curve with a large enough effect; inconclusive = small, poorly fitted or top-dose-only effect; inactive = no such curve, though single readings can be large or run the other way. Potencies of inconclusive entries are doubtful fits and often do not repeat.
Note: nearly all actives have a fitted effect of over 20% in size.
Potency is the fitted concentration of half-maximal effect; tags give direction and shape of the fitted curve.

These compounds were tested against Ferritin light chain (Equus caballus) (UniProt P02791) (assay: qHTS Assay for Identification of Novel General Anesthetics). Details: apoferritin/1-aminoanthracene competitive binding, fluorescence; series mostly up to 77.5 µM.
UniProt P02791, sequence (P02791 whole entry, looked up): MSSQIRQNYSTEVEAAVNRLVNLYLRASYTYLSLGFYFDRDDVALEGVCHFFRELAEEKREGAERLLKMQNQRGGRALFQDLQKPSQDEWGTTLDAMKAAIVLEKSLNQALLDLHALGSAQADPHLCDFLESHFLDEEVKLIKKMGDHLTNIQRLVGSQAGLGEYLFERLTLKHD
Outline: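 In PBS, apoferritin at 10 uM is loaded with 1-AMA from a 50% saturated solution. After 10 min of compound exposure at ambient temperature, reduced 535 nm fluorescence indicates probe displacement.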
With `CCCCSc1nnc2nc(C)cc(C)n12` the Potency was inconclusive: 35.5 µM [inhibitor, single point].
For `CCn1c(SCC(=O)c2ccc3ccccc3c2)nnc1-c1cccs1`, the Potency was inconclusive: 31.6 µM [inhibitor, partial curve].
`O=C(Nc1ccc(F)c(Cl)c1)N1CCCCCC1` was tested, and the Potency was inconclusive: 6.31 µM [inhibitor, full curve].
For `COc1ccc(OC)c2c1CCC2=O`, the Potency was “inactive”.
`Cc1c(C(=O)NCc2ccccc2)oc2c1-c1[nH]ncc1CC2` was tested, and the Potency was inconclusive: 31.6 µM [inhibitor, partial curve].
`O=C(CCc1ccccc1)Nc1ccccc1[N+](=O)[O-]` was tested, and the Potency was inconclusive: 28.2 µM [inhibitor, partial curve].
`CCCCC(CC)C/C=C1\CC(C(=O)OCC)Oc2ccccc21` (stereo unspecified) (tested in a mixture with another compound) was tested, and the Potency was “inactive”.
For `CCOc1ccc(-c2nnc(SCC(=O)NCCc3ccccc3)nc2-c2ccc(OCC)c(OC)c2)cc1OC`, the Potency was inconclusive: 3.16 µM [inhibitor, partial curve, poor fit].
With `CC(C)(C)c1nn(-c2ccccc2)c2[nH]c(=O)c(CNc3ccc4c(c3)OCCO4)cc12` the Potency was inconclusive: 12.6 µM [inhibitor, partial curve].
For `COCC1CCN(C(=O)c2cc(COc3ccc4c(c3)CCCC4)on2)C1` (stereo unspecified), the Potency was inconclusive: 35.5 µM [inhibitor, single point].
With `COc1ccc(Nc2cc(C)nc3ccc(OC)cc23)cc1` the Potency was “inactive”.
For `O=C(Nc1ncc([N+](=O)[O-])s1)C1COc2ccccc2O1` (stereo unspecified), the Potency was inconclusive: 50.1 µM [inhibitor, single point].
For `O=C(Cc1cccc2ccccc12)Nc1ccc(Br)cc1C(=O)O`, the Potency was “inactive”.
`Cn1c(CNC(=O)Nc2ccccc2Cl)nnc1SCc1ccccc1` was tested, and the Potency was inconclusive: 31.6 µM [inhibitor, partial curve].
For `Cc1ccccc1CN1C(=O)C(O)(CC(=O)c2cccc(Br)c2)c2ccccc21` (stereo unspecified), the Potency was inconclusive: 7.94 µM [inhibitor, full curve].
With `COC(=O)c1[nH]c2cccc(OC)c2c1NC(=O)CCN1CCN(c2cccc(Cl)c2)CC1` the Potency was inconclusive: 44.7 µM [inhibitor, single point].
`CCn1cc([N+](=O)[O-])c(C(=O)N2N=C(c3ccccc3)CC2c2ccc([N+](=O)[O-])cc2)n1` (stereo unspecified) was tested, and the Potency was inconclusive: 10 µM [inhibitor, partial curve].
With `COc1cccc(NC(=O)NC(C)C2CC3CCC2C3)c1` (stereo unspecified) the Potency was inconclusive: 17.8 µM [inhibitor, partial curve].
In the case of `Cc1ccc(CNc2ncc(-c3ccc4c(c3)OCO4)n2C)cc1`, the Potency was inconclusive: 28.2 µM [inhibitor, partial curve].
For `COc1ccc(-c2csc(C3=C(O)CN(Cc4ccc(Cl)cc4)C3=N)n2)cc1OC`, the Potency was inconclusive: 20 µM [inhibitor, partial curve].
For `Cc1ccccc1C(=O)OCc1cnc(Cl)s1`, the Potency was inconclusive: 35.5 µM [inhibitor, single point].
`O=C(Oc1ccc2c(c1)OCO2)c1cc2c(s1)CCC2` was tested, and the Potency was inconclusive: 12.6 µM [inhibitor, partial curve].
With `CC(=O)c1cccc(NS(=O)(=O)c2ccc(NC(=O)N3CCCCC3)cc2)c1` the Potency was inconclusive: 28.2 µM [inhibitor, partial curve].
For `Cc1ccc(C(=O)CSc2nnc3ccc4ccccc4n23)cc1`, the Potency was inconclusive: 31.6 µM [inhibitor, partial curve].
With `N/C(=N\OC(=O)Cc1ccc(-c2ccccc2)cc1)c1cccnc1` the Potency was inconclusive: 15.8 µM [inhibitor, partial curve].
`CCCCCCC(=O)Nc1nc(C)c(-c2csc(Nc3cc(OC)ccc3OC)n2)s1` was tested, and the Potency was inconclusive: 28.2 µM [inhibitor, partial curve].
`O=C(O)c1ccc(-c2nc(-c3cccc(C(F)(F)F)c3)cs2)cc1` was tested, and the Potency was “inactive”.
In the case of `O=c1[nH]c2ccccc2nc1/C=C/c1ccc(O)cc1`, the Potency was “inactive”.
`O=S(=O)(c1ccc(S(=O)(=O)N2CCN(C/C=C/c3ccccc3)CC2)cc1)N1CCCC1` was tested, and the Potency was inconclusive: 25.1 µM [inhibitor, single point].
For `N#Cc1c(NC(=O)CSc2ncnc3sccc23)oc(-c2ccco2)c1-c1ccco1`, the Potency was inconclusive: 28.2 µM [inhibitor, partial curve].
For `Cc1nn(-c2ccccc2)c2sc(C(=O)N3CCCCC3)cc12`, the Potency was inconclusive: 20 µM [inhibitor, partial curve].
For `Cc1ccc(-n2c(C)cc(C3N=C(N)Nc4nc5ccccc5n43)c2C)c(C)c1` (stereo unspecified), the Potency was inconclusive: 35.5 µM [inhibitor, partial curve].
`c1cc2c(cc1-c1cnc3n1CCC3)OCCO2` was tested, and the Potency was “inactive”.
`O=C(N/C=N/O)C1=NOC(CNc2ncc(C(F)(F)F)cc2Cl)C1` (stereo unspecified) was tested, and the Potency was inconclusive: 35.5 µM [inhibitor, partial curve].
For `O=[N+]([O-])c1cnc(Sc2ccncn2)s1`, the Potency was “inactive”.
`Nc1cc(N)c(OCC(F)(F)F)cc1OCC(F)(F)F` was tested, and the Potency was inconclusive: 31.6 µM [inhibitor, partial curve].
`CC(C)COP(=O)(OCC(C)C)C(O)c1ccccc1F` (stereo unspecified) was tested, and the Potency was inconclusive: 17.8 µM [inhibitor, partial curve].
`CCc1ccc(C2=C(C)C(N3CCC(C(=O)NCc4ccc(C)o4)CC3)=NS2(=O)=O)cc1` was tested, and the Potency was inconclusive: 50.1 µM [inhibitor, single point].
`O=C1N(Cc2cccnc2)C[C@@H]2C[C@@H](c3cccc(OC4CCCC4)c3)N3CCC[C@@]123` was tested, and the Potency was “inactive”.
`COc1ccc(-c2[nH]ncc2/C=C(/C#N)C(=O)NC2CCCCCC2)cc1` was tested, and the Potency was inconclusive: 11.2 µM [inhibitor, partial curve].
For `Cc1cccc(OCCCCn2c(C3CC(=O)N(c4ccc(C)cc4C)C3)nc3ccccc32)c1` (stereo unspecified), the Potency was “inactive”.
`CCOc1ccccc1NC(=O)CSc1nccn1Cc1ccc(F)cc1` was tested, and the Potency was inconclusive: 31.6 µM [inhibitor, partial curve].
For `Cc1ccc(CCC(=O)Nc2ccc([N+](=O)[O-])cc2Cl)o1`, the Potency was inconclusive: 15.8 µM [inhibitor, partial curve].
In the case of `O=C(COC(=O)c1ccc(S(=O)(=O)NCc2ccco2)cc1)NCC1CCCCC1`, the Potency was inconclusive: 28.2 µM [inhibitor, partial curve].
In the case of `CCOC(=O)C(C)/C(C)=N\Nc1ccc([N+](=O)[O-])cc1[N+](=O)[O-]` (stereo unspecified), the Potency was inconclusive: 35.5 µM [inhibitor, partial curve].
`Brc1ccc(-c2csc(N3CCOCC3)n2)cc1` was tested, and the Potency was inconclusive: 28.2 µM [inhibitor, partial curve].
For `O=C(Cc1ccc(F)cc1)Nc1ccccc1N1CCCC1`, the Potency was inconclusive: 31.6 µM [inhibitor, partial curve].
`CC12CCC(C/C1=N\OC(=O)c1c(F)cccc1F)C2(C)C` (stereo unspecified) was tested, and the Potency was inconclusive: 25.1 µM [inhibitor, partial curve].
With `COc1cccc(CN(C)C(=O)COc2ccc(C(=O)c3ccc(Cl)cc3)cc2)c1OC` the Potency was inconclusive: 28.2 µM [inhibitor, partial curve].
With `Cc1cccn2c(=O)c3cc(C(=O)NCC4CCCO4)c(=N)n(C4CCCCC4)c3nc12` (stereo unspecified) the Potency was “inactive”.
With `CCOC(=O)COc1ccc(C(=O)c2ccccc2)c(O)c1` the Potency was inconclusive: 44.7 µM [inhibitor, single point].
`C/C(=N\NC(=O)c1cccc(Br)c1)c1ccccn1` was tested, and the Potency was “inactive”.
In the case of `COC(=O)COc1ccc2c(-c3cccc([N+](=O)[O-])c3)cc(=O)oc2c1`, the Potency was inconclusive: 141 µM [inhibitor, partial curve].
With `O=C(Nc1cc(Cl)cc(Cl)c1)C1CCCC1` the Potency was inconclusive: 15.8 µM [inhibitor, partial curve].
In the case of `Cc1ccc(-c2nnc3n2N=C(c2ccccc2)CS3)cc1`, the Potency was “inactive”.
For `Cc1ccc(C2C(=O)c3ccccc3C2=O)cc1`, the Potency was inconclusive: 35.5 µM [inhibitor, single point].
For `COc1ccc(Cl)cc1NC(=O)C1(c2cccs2)CCOCC1`, the Potency was inconclusive: 22.4 µM [inhibitor, partial curve].
For `C#CCOc1c(Br)cc(/C=N\NC(=O)CN2CCOCC2)cc1OCC`, the Potency was inconclusive: 39.8 µM [inhibitor, single point].
With `CSc1nnc(C)c(/C=C/NOCc2ccc(Cl)cc2)n1` the Potency was inconclusive: 39.8 µM [inhibitor, single point].
`CN(CC1CCOCC1)C(=O)CC1C(=O)NCCN1Cc1ccc(Cl)c(F)c1` (stereo unspecified) was tested, and the Potency was “inactive”.
With `O=C(NNS(=O)(=O)c1ccc(Cl)cc1)c1cnn(-c2ccccc2)c1-n1cccc1` the Potency was inconclusive: 56.2 µM [inhibitor, single point].
`O=[N+]([O-])c1ccc(N2CCN(Cc3ccccc3)CC2)c(S(=O)(=O)N2CCOCC2)c1` was tested, and the Potency was inconclusive: 20 µM [inhibitor, partial curve].
In the case of `CC(C)(C)OC(=O)N1CCC(c2c(C(=O)NCCc3ccccc3)cnn2-c2ccc(F)cc2)CC1`, the Potency was inconclusive: 14.1 µM [inhibitor, partial curve].
In the case of `CCc1ccc(N2C(=O)c3sc4nnc(-c5ccccc5)c(=O)n4c3C2=O)cc1`, the Potency was inconclusive: 28.2 µM [inhibitor, partial curve].
For `CC(=O)N1c2ccc(S(=O)(=O)NCC3CCC(C(=O)Nc4cc(C)ccc4C)CC3)cc2CC1C` (stereo unspecified), the Potency was “inactive”.
For `CCOc1ccc(C(=O)Nc2nc3ccccc3[nH]2)cc1OCC`, the Potency was inconclusive: 39.8 µM [inhibitor, single point].
